# Assay results reported in the supplement of paper PMC3334620.
# The full ranking holds about 33,000 sequences; the median of “E-score (-0.5 to 0.5)” is about -0.021, and the highest 2% start at about 0.32. The list shows a part of the results.
# Target: T1, Zap1 (UniProt P47043)
# T1 sequence: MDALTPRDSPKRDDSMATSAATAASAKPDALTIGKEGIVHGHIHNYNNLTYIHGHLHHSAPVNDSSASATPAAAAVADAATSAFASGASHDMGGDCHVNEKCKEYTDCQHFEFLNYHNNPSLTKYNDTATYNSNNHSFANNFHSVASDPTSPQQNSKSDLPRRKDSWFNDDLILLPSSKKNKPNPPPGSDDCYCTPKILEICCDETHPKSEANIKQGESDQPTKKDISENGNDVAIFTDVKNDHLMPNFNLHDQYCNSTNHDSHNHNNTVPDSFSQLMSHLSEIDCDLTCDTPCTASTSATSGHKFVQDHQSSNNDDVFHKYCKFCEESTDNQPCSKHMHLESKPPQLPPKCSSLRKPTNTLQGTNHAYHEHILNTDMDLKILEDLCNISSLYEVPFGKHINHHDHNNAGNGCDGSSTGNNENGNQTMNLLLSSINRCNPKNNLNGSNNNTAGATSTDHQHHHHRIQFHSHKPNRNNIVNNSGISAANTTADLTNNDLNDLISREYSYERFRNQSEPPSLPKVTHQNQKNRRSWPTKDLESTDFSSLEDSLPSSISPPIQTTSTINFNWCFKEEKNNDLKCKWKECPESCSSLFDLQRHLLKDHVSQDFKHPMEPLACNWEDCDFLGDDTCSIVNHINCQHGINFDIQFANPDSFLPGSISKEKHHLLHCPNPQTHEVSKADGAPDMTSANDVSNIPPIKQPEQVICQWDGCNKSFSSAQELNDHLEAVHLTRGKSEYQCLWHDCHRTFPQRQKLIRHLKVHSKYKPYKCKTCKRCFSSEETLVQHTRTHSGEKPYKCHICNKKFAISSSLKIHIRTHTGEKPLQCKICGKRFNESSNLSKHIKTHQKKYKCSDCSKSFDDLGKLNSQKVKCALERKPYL
# Experiment: PBM E-score (8-mer binding enrichment) (E-score (-0.5 to 0.5)); higher = stronger / more preferred TF binding; most listed sequences are background and not binding sites
# Conditions: protein concentration: 200 nM; construct: GST-full length
# In short: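 Masliner-normalised scans of fluorescent anti-GST signal were the basis for scoring. That signal came from GST-tagged yeast transcription factors applied at about 100-200 nM to double-stranded universal all-10-mer Agilent arrays on fresh or once-stripped slides. Each ungapped eight-base word, pooled with its reverse complement, received an E-score from the Universal PBM Analysis Suite.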
row,Sequence,PBM E-score
1,GGTAACAC,0.237
2,CCTGGTAG,0.156
3,CCTTATAC,0.0827
4,CAGTCACG,-0.137
5,CACACGCA,-0.0335
6,CACACCGG,-0.0808
7,AAATATTT,0.181
8,CTGCTGGC,-0.322
9,ACCGTCCG,0.00861
10,AATTTTCA,0.0836
11,GACACTCA,-0.146
12,CCACTCTA,0.146
13,CTGCCAGA,-0.0969
14,ACTCCACT,-0.168
15,ACAGCTTG,-0.113
16,CTTTCACC,-0.0507
17,TAATGCGA,0.00701
18,AGTACACC,0.0762
19,ATATACCG,0.134
20,CGCAGCTA,-0.162
21,GCTAATCC,-0.0663
22,CACTGGGC,-0.327
23,GGTGCATA,-0.0507
24,CTGTGGAA,-0.0936
25,CAAGATCG,-0.00013

row,Sequence,PBM E-score
1,CTGTAAGC,-0.185
2,TTGAGAAA,0.112
3,GCGGACCA,0.227
4,ATGTAATA,0.133
5,CAAGAGCC,0.0252
6,CTTGAACA,0.0243
7,AACGTCGC,-0.0554
8,AAGCCGGA,0.155
9,ACCTCCCG,-0.0297
10,TATCTGCA,0.0163
11,CGATGGCG,-0.284
12,CAGGGGAC,-0.0583
13,AATCCGGT,0.145
14,GGCTCCTA,-0.177
15,TACAAGGA,-0.0532
16,AAATTCTT,-0.219
17,CTTCACCC,0.16
18,GAAACCAC,0.116
19,ACGTGCAA,-0.128
20,GTTACGAA,0.315
21,CAGCCCGC,-0.368
22,GACTAGAC,-0.101
23,CAAACACG,0.00956
24,TGCGCTAA,0.0088
25,GCCGTTCC,-0.216

row,Sequence,PBM E-score
1,TATCTTGA,-0.0601
2,CAGCAAAG,0.0786
3,ATTGGCAG,-0.219
4,ACGCTGCC,-0.24
5,AAACAATA,0.16
6,AGTCTCTC,-0.193
7,GTCTCGAA,0.00193
8,GACATAGA,-0.201
9,CGTATGCC,-0.166
10,CTCAAAAG,0.107
11,TACCGCCA,0.0985
12,GCGCCAGA,-0.187
13,TCCATTAA,0.13
14,AAAGTGCG,-0.112
15,TTAGCAAA,-0.00157
16,GTATCCAC,0.00481
17,ATTCATAG,-0.0199
18,GCTTGTAC,-0.0498
19,CCGGAGCA,-0.103
20,ACCGAACA,0.164
21,CAATTGGC,-0.0337
22,TGTACAAA,0.0923
23,AGCTCTGC,-0.244
24,AATGTAGA,-0.0152
25,AGCTTGCG,0.0161

row,Sequence,PBM E-score
1,CTGTATAA,0.146
2,AGAGTTAG,0.0841
3,AAATTAAT,0.137
4,TGACGCCA,-0.0485
5,CGCCTATA,-0.149
6,GAGCCGAC,-0.16
7,CATATGGA,-0.057
8,CCTACACC,0.00539
9,GCCTTAGA,-0.0849
10,CTGAGAAG,-0.17
11,ATTGCCCA,-0.118
12,GACGGAGA,-0.259
13,ACTAACCC,0.271
14,TCGTGTAA,0.037
15,AGTCATCG,-0.0847
16,CGCGAAAG,0.0879
17,CGGGTCAG,0.28
18,GATGAGAC,0.0403
19,CTTACTAA,0.0846
20,GCTCACCC,-0.0292
21,CTGCCTTC,-0.275
22,AACATCAT,-0.0224
23,AAGGCCAA,-0.0469
24,AAGCCCAT,-0.17
25,CCTATTGA,0.158

row,Sequence,PBM E-score
1,AGACCTAT,0.159
2,GGCGGAAC,-0.0843
3,AGGCGTCC,-0.2
4,CCATGGCC,0.2
5,CATCCAGC,-0.108
6,GAGCTAGA,-0.232
7,AACAAAAG,0.195
8,CCCTGAAC,0.21
9,GACTCTTA,0.128
10,CTCTGAGA,-0.111
11,AGTGAATG,-0.00523
12,ATGTCTTG,-0.00745
13,AAGCGAAG,0.0371
14,ACAATCAT,-0.0482
15,GCGCAAGA,-0.0496
16,TACGATCA,0.127
17,CGTGTATA,-0.145
18,ATAGCGCA,-0.152
19,GAGTGGGA,-0.244
20,CCCATTAA,-0.0317
21,CCACGCGG,0.021
22,AATCATCA,0.0469
23,ACAGCAGG,0.0624
24,CATGGAAA,0.114
25,ATGACGGA,0.11

row,Sequence,PBM E-score
1,GAAGCATA,-0.0632
2,GCTATTTA,-0.0443
3,ACGCACTG,-0.122
4,AAAAGACA,0.163
5,ACTCTGCC,-0.148
6,CTGTTTAC,0.0354
7,CTCCTAAC,0.0998
8,ACCGAGAA,0.176
9,AATTCATA,0.215
10,CCAGTTAA,0.197
11,GTTATCCA,0.231
12,CCATAGAC,-0.00887
13,GACCGTCC,-0.0473
14,AACACGTA,-0.0708
15,AACGTAGG,-0.222
16,GAGTAGAC,-0.0776
17,CCAAACAG,0.0992
18,CAAAGCTC,-0.00389
19,GCCAGGAA,-0.0959
20,AGTGACAT,-0.0823
21,GAGCGCTA,-0.137
22,AGATTCCT,-0.185
23,GCCTATAC,-0.326
24,CAAGTAAG,0.129
25,GCATCTGA,-0.171

row,Sequence,PBM E-score
1,AAACGATT,-0.0766
2,CAGCGAGG,0.0288
3,CCATTTGC,-0.0641
4,ACGAACCA,0.219
5,GGTCACGA,0.391
6,CGGCAGAA,-0.233
7,TGGAACCA,0.199
8,ATAACCGA,0.349
9,CAAGGTGA,0.216
10,ATATGTCA,-0.0856
11,GCAGTGCC,-0.123
12,TCACAAGA,0.0766
13,ATGCGTAC,-0.157
14,GTTTGCGA,-0.0367
15,CGCCGAAC,-0.15
16,CGCAGCCA,-0.119
17,GAGTGAGA,-0.236
18,AGTTGGGA,-0.173
19,ATAGCCAT,-0.133
20,ACGACACA,0.0872
21,CTACCAGA,0.0484
22,ATAGCTCG,-0.116
